T1: UNK ZnF1-3 (human, UniProt Q9C0B0 31-174)
T1 sequence: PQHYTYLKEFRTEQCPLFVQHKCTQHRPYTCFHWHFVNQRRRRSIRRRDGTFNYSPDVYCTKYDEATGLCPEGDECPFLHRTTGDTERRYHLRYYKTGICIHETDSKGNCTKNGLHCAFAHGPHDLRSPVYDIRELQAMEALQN

B1: chr2:91389038:91389039:+_ENSMUSG00000040549_ENSMUST00000099716|mus_mus|motif|central (ssRNA)
RNA: GGGAGUUCUACAGUCCGACGAUCUAGUCCUUUCAAUUGAACCACUGCAUUGGAAUCAGUGACAAAUUUUUUGAUUAAUCCGGAGUAUUUGGACCAUUCUGGACUCUUUUCAUCCUUUAUUUUCUGGAAGAUCUUCAAGGCUUCCAACAGAGGAUUGAGCAUCA
B2: chr17:60770872:60770873:+_ENSG00000011028_ENST00000303375|hu_hu|hu_hu_hu_mus_True|1_28 (ssRNA)
RNA: GGGAGUUCUACAGUCCGACGAUCUCUUUAAAAAAAAAAAAAAAAAGACAAACAAUAAUAGCACAUUUCGAGAAUCAAGAACUACAAUAGAGGGUCCGCUUUGAGUUGUCCAUGUUCUCGUCCUGCACUGGGACACGACCAGGACAACAGAGGAUUGAGCAUCA
B3: chr6:84311021:84311022:-_ENSG00000065609_ENST00000520302|hu_hu|FALSE|FALSE (ssRNA)
RNA: GGGAGUUCUACAGUCCGACGAUCCCCAGGAGAAGCUGCAAAGGCAUCUCCAAAGAGAUCCACUUCAGCAGUGACAGCAGUAACAGUUGUAGUAGUGGAGGCAGAAGCUGAGGCAGUUGCAAUUUCAGCAGUUGUAGUAGGAGGCAACAGAGGAUUGAGCAUCA
B4: chr12:105536279:105536280:+_ENSG00000136051_ENST00000332180|hu_mus|hu_hu_hu_mus_True|8_18 (ssRNA)
RNA: GGGAGUUCUACAGUCCGACGAUCAGCACUGAACAUGUAAUGUAAUCUGGCUGCAUCGACAGCAUUUUCAUAUACAUCAUCUAAAUAAAUCGGGAAGACAGCGCGAUGCCAGUAUAAAAAACAACAGUCACAUUGUGCUUGGACCAACAGAGGAUUGAGCAUCA
B5: chr11:77336104:77336105:-_ENSG00000074201_ENST00000525064|hu_hu|motif|central (ssRNA)
RNA: GGGAGUUCUACAGUCCGACGAUCUUCGCACAUUGCAGUGAACAUUGCCUCCAACGCUGAUUUAUCACUAGGCACAAAUCGGAAUUCAGUAAUAGGUUCAACAUCAUCAUCACUGUCUUCCUCUUCUUCAUCAGCAACAGGUUCCAACAGAGGAUUGAGCAUCA
B6: 126075893_126079953_1568_CDS_ENSG00000164961_ENST00000318410|human|control|control (ssRNA)
RNA: GGGAGUUCUACAGUCCGACGAUCCUCUUUGAGUAUAAACUCAAAUUGUGCAGUAUCUAACAGCAGCUGGAAGAGGAUCCUGGGAUUGUACCGAGAGUCUGUUAGAAUCUGGUCCUUGAUUUGACGAAGGCGUUUGUUGUUUGGCAACAGAGGAUUGAGCAUCA
B7: chr1:6260860:6260861:+_ENSMUSG00000025907_ENSMUST00000027040|perfect_dup|motif|central (ssRNA)
RNA: GGGAGUUCUACAGUCCGACGAUCUGGUUUGAGAUCCAGGGCAGGUAGAGACUCUGAAUGUAGAAAAUAUAAAGUAGGACGGACAGUAAAUAACACAUAAUUGUCAUGGCGUUCGUCUAGGAUGAUGAGUACCAAAUCUCCCACCAACAGAGGAUUGAGCAUCA
B8: chr2:48026839:48026840:+_ENSG00000116062_ENST00000540021|hu_hu|hu_hu_hu_mus_False|1_1 (ssRNA)
RNA: GGGAGUUCUACAGUCCGACGAUCAUAGUGAGCCACUAGCGUCCUAAAUCUGGAACAGUGGCGGUCAUCCGAAAACUGGCCGAUGAAAAACUUGCCCAGUGAAGUGUCCACAAAGCAAACACCAUACACACGAGUGUGGCCAGACAACAGAGGAUUGAGCAUCA
B9: chr2:42509997:42509998:+_ENSG00000143924_ENST00000318522|hu_mus|hu_hu_hu_mus_True|28_58 (ssRNA)
RNA: GGGAGUUCUACAGUCCGACGAUCUCGCUGAGUCCUCUCCUCAUAAUUAAACAGGACUACCACUGAGGCGAUAAAAUAAACUAUUUUCCCUGUGGGAAGCAGGUAUACAUUAGCUCUACAGUCCUUUCCUCGAUAACCGUAUACCAACAGAGGAUUGAGCAUCA
B10: chr3:9412954:9412955:+_ENSG00000134077_ENST00000452837|hu_mus|hu_hu_hu_mus_False|1_108 (ssRNA)
RNA: GGGAGUUCUACAGUCCGACGAUCGGUUGAUACAUCCUCUUUGAUGGCUGGAUUUUCAUAAUAGUCCAAGAUAUGUGAAUCUGAAGUGCUGCUGGCAUGCUUUUUCUUACCAUCUUUCUCAUCUGCUUUGUCUCCUUGUCCAUUCAACAGAGGAUUGAGCAUCA
B11: 128103536_128109129_3178_CDS_ENSG00000165219_ENST00000394104|human|control|control (ssRNA)
RNA: GGGAGUUCUACAGUCCGACGAUCAGCUUGUGCACUGAGUCUAGGGCUGGGAUCAUCUGUGAGUGUUGAGAAUCUGUCAGGCCCCAGAUCAUCUUUGUCUUUUUCUUGUUUUUCUUUCUUUCUAAAUGGUAUAGGAGCUUUAGGCAACAGAGGAUUGAGCAUCA
B12: chr7:44244176:44244177:+_ENSG00000106636_ENST00000223369|hu_hu|FALSE|FALSE (ssRNA)
RNA: GGGAGUUCUACAGUCCGACGAUCACUAUCAUUCCGGACGUAGACGUGGCACAGAUAGUCUUGUUCUUUGACAGAAGCUCUAGUGCCUUUCGAUGAGCGCUCCACAAUCAGUUGACUCGUGAAGGUCAUGAAUUCCUGAACGCUCAACAGAGGAUUGAGCAUCA
B13: chr8:97153689:97153690:+_ENSMUSG00000050079_ENSMUST00000060389|mus_mus|motif|central (ssRNA)
RNA: GGGAGUUCUACAGUCCGACGAUCGUCUAGUAACAAGGUUAUAACAGCUGGUCCCAAUGGAUCUUCCAAUGGAAUAACUCGGAUUAAAGACUGGACAACAUCCAACCAUCCUUCAUCUGUUUCUGCCAUUUCAUGUAAUGUAAUCAACAGAGGAUUGAGCAUCA
B14: chr2:65539780:65539781:-_ENSG00000198369_ENST00000356388|hu_mus|FALSE|FALSE (ssRNA)
RNA: GGGAGUUCUACAGUCCGACGAUCGUUUGUAAAAUAAUUGAGUAAAAUUUAUCUCACUGAUGUGUUAUUCUAAGUAUUGCUAGGAUUUUAGAAGUGGCAAUGCAAUUCUAAAAAGUCCUAUUUUUCGGGUCAACUGGGCAAGCUCAACAGAGGAUUGAGCAUCA
B15: chr18:10000604:10000605:-_ENSMUSG00000047879_ENSMUST00000092096|mus_mus|FALSE|FALSE (ssRNA)
RNA: GGGAGUUCUACAGUCCGACGAUCAGAGACCAUUUUCUCUUGAAGUUCUGGUGUGCAGAGUUCAUACACAUCCAACAUAAGAGGAAACUUAACAUCCUUAAGAACUUUGGCGUUCACAGAUUCUUUCUCUUUAUAAAAAAAUCGCAACAGAGGAUUGAGCAUCA
B16: chr13:45008927:45008928:-_ENSG00000102804_ENST00000261489|perfect_dup|motif|central (ssRNA)
RNA: GGGAGUUCUACAGUCCGACGAUCCGGACUGGCCAGCGUCUUCAGCAGAUUGUUCUCCUGCUCCAGCUGGGAGUUUUUCUCGGUUAGUUCUUUGAUCUGCUCCUUCAGAACUUCCACUUCCUCCCUCACCGCAUACAUCAAAUGCAACAGAGGAUUGAGCAUCA
B17: chr3:148802587:148802588:-_ENSG00000071794_ENST00000310053|hu_mus|hu_hu_hu_mus_False|28_68 (ssRNA)
RNA: GGGAGUUCUACAGUCCGACGAUCUCCAACAACUUGUCCUCUCAUAGUUCCAAAUAAAACCAAAUCUACUUCUUCAUCACUCGUUAGGAAGUCAUCUGGAGGAAUAACAUCUUGGAAUUCAAAAUGUGGCAAGAAAGUUGAGUACAACAGAGGAUUGAGCAUCA
B18: chr11:94609001:94609002:+_ENSG00000166025_ENST00000433060|hu_hu|motif|central (ssRNA)
RNA: GGGAGUUCUACAGUCCGACGAUCAGAGAUGUGAACACAUAGGAGGCAUGGCAAGAGAAUUGAUUUUUAAAAAUCUGUGUGCGGAUGAGGAUGAUCCCCCCUUGAAGUGGACACUUUGAGAGGCUCUGAGGCCAAAGACUCAUUCAACAGAGGAUUGAGCAUCA
B19: chr1:60041781:60041782:+_ENSMUSG00000041040_ENSMUST00000036540|mus_hu|mus_mus_mus_hu_False|28_78 (ssRNA)
RNA: GGGAGUUCUACAGUCCGACGAUCAAGUUUACAAUAGUAAAGUAAAUGCAGUAGUGGAAUGGCAAGUUUUAUUUUCCUUCACAAAAGAAAAUCUUUAUAACCCAGUCCAAUCCCAGAACAUAGUGAAAGCUAUAAAUUCUGACUCAACAGAGGAUUGAGCAUCA
B20: chr5:71505325:71505326:+_ENSG00000131711_ENST00000296755|hu_hu|FALSE|FALSE (ssRNA)
RNA: GGGAGUUCUACAGUCCGACGAUCUUUGUAUUUUAUUGUGGAACUGAGUUUUUUUUUUUCCUUUACAUCAAAUAUCCUCAAUGGAAGAGGGGAUAUUGCACACAAAUAUCAUAAAAGCACUACAUAUUACUUUCACUGGAAACUCAACAGAGGAUUGAGCAUCA
B21: 20112534_20113841_6052_CDS_ENSG00000166833_ENST00000396085|human|control|control (ssRNA)
RNA: GGGAGUUCUACAGUCCGACGAUCGGACACUUGGGAAGGAGCCCGGCUGCAGCCACUGCCUUGAGACUCUGACUUCAGCCGAUCAUUCUCAGCUUUCAGCUUCUCUAUUUCACUCUGCAUCCUGUUCAUGGCCUCCCGGAGCUGCAACAGAGGAUUGAGCAUCA
B22: chr8:104447970:104447971:+_ENSG00000164934_ENST00000297579|hu_hu|hu_hu_hu_mus_False|58_98 (ssRNA)
RNA: GGGAGUUCUACAGUCCGACGAUCAUACACUUCCCUGCUUCGACUUUUGUCCACAGGAAAGAUUCUAAUAGACUUAUCGAAACUAGCAGACACAAAUUCCUUCCCAGUGGGAGAGUAGUCCACAUCAAGUACUGCAGACACGUGCAACAGAGGAUUGAGCAUCA

Some of the results follow.

The target in this assay is T1, UNK ZnF1-3. Put plainly: nsRBNS (natural sequence RNA bind-n-seq); RBNS binding buffer (assumed for nsRBNS): 25 mM Tris pH 7.5, 150 mM KCl, 3 mM MgCl2, 0.01% Triton X-100, 500 ug/ml BSA, 20 U/ml SUPERase-In, 4 C; UNK is unkempt and MSI1 is Musashi-1; names of the RNAs are library labels; protein concentration not given here; high values mean tight binding.
With B1, the binding signal stood at 0.953 enrichment R.

Turning to B2, the binding signal is 2.29 enrichment R.

With B3, the binding signal turned out to be 1.47 enrichment R.

In turn, B4 displayed a binding signal of 2.55 enrichment R.

As for B5, the binding signal stood at 0.758 enrichment R.

B6 had a binding signal of 1.05 enrichment R.

For the molecule B7, the binding signal turned out to be 2.34 enrichment R.

For B8, the binding signal is 1.01 enrichment R.

Consider B9, for which the binding signal came to 1.59 enrichment R.

For B10, the binding signal stood at 0.531 enrichment R.

B11 returned a binding signal of 0.996 enrichment R.

The molecule B12 displayed a binding signal of 0.331 enrichment R.

As to B13, the binding signal was found to be 0.757 enrichment R.

For B14, the binding signal came out at 0.813 enrichment R.

As to B15, the binding signal was found to be 0.557 enrichment R.

Molecule B16 gave a binding signal of 0.949 enrichment R.

Turning to B17, the binding signal is 1.4 enrichment R.

In turn, B18 showed a binding signal of 2.55 enrichment R.

Molecule B19 yielded a binding signal of 0.484 enrichment R.

Take B20: the binding signal came out at 0.644 enrichment R.

As for B21, the binding signal was determined as 0.68 enrichment R.

Molecule B22 registered a binding signal of 0.787 enrichment R.

Source of the values: article PMC12136788.
